The list shows a part of the results. Further columns of the screen follow, without active or inactive calls. Most of these compounds were active or inconclusive in the main read-out, so they are no random draw.

The assay can be described thus: qHTS Assay for Lipid Storage Modulators (AID 1519). The settings on record: Drosophila S3 cells, BODIPY lipid droplet/cell ratio, laser cytometry; measured here: lipid channel max response; cells loaded with oleic acid. In outline:
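Cells seeded at 5,000 per well were treated with compounds over a concentration series and loaded with oleic acid (400 uM, as added). Lipid droplet fluorescence (488 nm excitation, 500-530 nm channel) was read by laser-scanning cytometry and normalized to 20 uM Triacsin C.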
As for `COc1cc2c(C=O)c3c4c(cc(OC)c(OC)c4c2cc1OC)CCN3C`, the max response is 101%.

Consider `c1cncc(-c2ccc3ncnc(NCCN4CCOCC4)c3c2)c1`, for which the max response is 35.6%.

On to `CCNc1ncc2nc(-c3ccccc3)c(=O)n(Cc3ccc(F)cc3)c2n1`, for which the max response is 15.1%.

`O=C(O)c1c2ccccc2cc2ccccc12`: the max response worked out at 96.5%.

With `COC(=O)Nc1ccc2[nH]cc(CCNC(C)=O)c2c1`, the max response was found to be 66.2%.

`Cc1nc2cnc(Oc3cccc(Cl)c3)nc2n(CCc2ccccc2)c1=O`: the max response was found to be 21%.

For the molecule `COc1cc2c(cc1OC)-c1c(OC)c(OC)cc3ccnc(c13)C2=O`, the max response is 66.4%.

Consider `CCNc1ncc2nc(CCc3ccccc3)c(=O)n(C)c2n1`, for which the max response is 30.5%.

On to `COc1ccc(-n2c(=O)c(-c3cccc(F)c3)nc3cncnc32)cc1`, for which the max response was 46.3%.

With `COc1ccc(CNc2ccnc(-c3ccoc3)n2)c(OC)c1`, the max response was found to be 26.1%.

As to `CC(=O)NCCNc1nc(-c2cccc(NS(C)(=O)=O)c2)nc2ccccc12`, the max response worked out at 50.2%.

Consider `COc1cccc2c1C(=O)CC(c1ccccc1)O2` (stereo not given), for which the max response is 149%.

For `Cc1ccc(CC(Cc2nc3ccccc3[nH]2)c2nc3ccccc3[nH]2)cc1` (stereo not given), the max response came out at 105%.

Consider `COc1ccc(Oc2ncc3ncc(=O)n(Cc4ccc(F)cc4)c3n2)cc1`, for which the max response came to 21.9%.

Regarding `Cc1cnc(CNc2ncnc3ccc(-c4ccc(N(C)C)cc4)cc23)cn1`, the max response is 31.1%.

As for `COc1ccc2[nH]cc(CCNc3ncnc4ccc(-c5cccc(C#N)c5)cc34)c2c1`, the max response was 1.97%.

For `Cc1cnc(CNc2cc(-c3ccc(N(C)C)cc3)ncn2)cn1`, the max response was 29.7%.

Turning to `CC(=O)OC1CCC2(C)C(CCC3(C)C2C(=O)C=C2C4CC(C)(C(=O)OCCN5CCCCC5)CCC4(C)CCC23C)C1(C)C` (stereo not given), the max response came to 40.5%.

As to `COc1ccccc1CNc1cc(-c2ccccc2C(F)(F)F)ncn1`, the max response was determined as 48.1%.

With `O=C(Oc1ccccc1)N1CCC2(CCCN(c3ncccn3)C2)CC1`, the max response was 20%.

With `COc1ccc2[nH]cc(CCNc3ccnc(-c4ccccc4Cl)n3)c2c1`, the max response is 20.6%.

For the molecule `COC(=O)CC[C@@H](C)[C@H]1CC[C@H]2[C@@H]3CC[C@@H]4C[C@H](O)CC[C@]4(C)[C@H]3C[C@H](O)[C@]12C`, the max response was 51.5%.

`CN1CCN(c2ncnc3ccc(-c4cccc(C#N)c4)cc23)CC1`: the max response is 18.7%.

As to `O=c1c(-c2cccs2)nc2cnc(N3CCNCC3)nc2n1Cc1cccs1`, the max response is -71.9%.

Turning to `CCNc1ncc2nc(-c3ccc(OC)cc3)c(=O)n(CCc3ccccc3)c2n1`, the max response came out at 38.4%.

Regarding `Cc1ccccc1-c1cc(N(C)Cc2ccco2)ncn1`, the max response was found to be 41.8%.

As for `COc1ccc(CNc2nc(-c3cccc(C#N)c3)nc3ccccc23)c(OC)c1`, the max response amounted to 35.5%.

As to `CNC(=O)[C@H]1O[C@H](n2cnc3c(NCc4cccc(I)c4)ncnc32)[C@@H](O)[C@@H]1O`, the max response worked out at 80%.

With `COc1ccc(-c2coc3ccc(OC4OC(COC(C)=O)C(OC(C)=O)C(OC(C)=O)C4OC(C)=O)cc3c2=O)cc1` (stereo not given), the max response was found to be 33.2%.

As for `COc1ncc2nc(-c3ccc(F)cc3)c(=O)n(Cc3cccs3)c2n1`, the max response is 45.9%.

Regarding `Cc1cccc(CNc2cc(-c3ccc(N(C)C)cc3)ncn2)c1`, the max response was -111%.

Regarding `CCCCCCCC/C=C\CCCCCCCC(=O)N[C@@H](CO)Cc1ccc(O)cc1`, the max response was found to be 48.3%.

Turning to `Cc1cnc(CNc2cc(-c3ccccc3C)ncn2)cn1`, the max response was determined as 55.1%.

In the case of `O=c1cnc2cnc(Oc3ccccc3)nc2n1Cc1cccs1`, the max response came to 38.7%.

In the case of `N#Cc1ccccc1-c1ccc2ncnc(NC3CC3)c2c1`, the max response was 43.7%.

`CN(C)c1ncc2nc(-c3ccc(Cl)cc3)c(=O)n(C)c2n1`: the max response was determined as 28.4%.

For the molecule `COc1cccc(-c2cc(NCc3ccc(OC)cc3OC)ncn2)c1`, the max response came out at 35.2%.

As for `O=c1cc(-c2ccccc2O)oc2c(O)c(O)ccc12`, the max response came to 111%.

For `COc1ccc(CNc2ccnc(-c3cccnc3)n2)c(OC)c1`, the max response was determined as 18.9%.

Take `N#Cc1cccc(-c2nc(NCc3cccnc3)c3ccccc3n2)c1`: the max response was determined as 8.94%.

The record behind these values is PubChem BioAssay (NCATS).
